Reference: PubChem BioAssay (NCI)
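Assay format: 96-well plates, 48-hour exposure. GI50: concentration for 50% inhibition of growth.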 Not every entry of the source has a single result; some have several. This list holds those alone. An entry can have further records. The tests behind the records often covered other concentration ranges, which the source does not state; a value can be the end of its range.

Test system: M14 melanoma
Assay: NCI anticancer screen, dose series, 48 h

**Q.** CO[C@@H]1[C@H](OC(=O)NC(=O)CCl)CC[C@]2(CO2)[C@H]1[C@@]1(C)O[C@@H]1CC=C(C)C was tested. Which GI50 did it give?
**A.** 178 nM and 7.16 µM
